Assay results taken from paper PMC10726135.
Some of the results follow. At the low end of the ranking the order means little. The protein was read in a cell extract, so binding may be indirect.

What follows are sequences tested against T1, HNF4alpha2 (COS-7 nuclear extract) (UniProt P41235) (assay: protein-binding microarray). Details: COS-7 nuclear extract on double-stranded Agilent 4x180k PBM; binding buffer, salt, pH and temperature not given; high values mean tight binding; double strand, one strand shown; sequences stand for … in …GCCTAGGGAGATTAGAGTATCGGTCGA.
T1 sequence: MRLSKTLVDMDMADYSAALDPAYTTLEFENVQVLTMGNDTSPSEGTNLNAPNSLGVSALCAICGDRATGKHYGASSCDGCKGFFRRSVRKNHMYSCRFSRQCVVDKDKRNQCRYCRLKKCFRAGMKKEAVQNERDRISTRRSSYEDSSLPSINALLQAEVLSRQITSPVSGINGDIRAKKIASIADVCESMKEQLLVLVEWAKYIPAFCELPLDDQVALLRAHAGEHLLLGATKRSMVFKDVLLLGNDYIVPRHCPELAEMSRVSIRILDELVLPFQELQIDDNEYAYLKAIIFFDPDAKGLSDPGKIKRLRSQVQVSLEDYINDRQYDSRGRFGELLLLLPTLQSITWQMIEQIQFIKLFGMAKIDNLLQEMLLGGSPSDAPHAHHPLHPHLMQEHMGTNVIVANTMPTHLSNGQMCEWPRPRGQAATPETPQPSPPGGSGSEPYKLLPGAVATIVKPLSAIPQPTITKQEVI

| Sequence | binding signal (log2 normalized intensity) |
| --- | --- |
| TTTAATACAAGTATTATCTTCCATTTCTGC | -0.426 |
| CAGGCACAAGAATGGTCATTCTCTGTTGCA | -0.909 |
| GGGTGGGGGTGGGGAGGATAGCAGCCCAGC | -1.21 |
| AGTGACTTAATTATCAGAAGAGGAGCGATG | 0.939 |
| GGTTTCTTGCTGAAGGTAGGACAGGGTGAT | 1.05 |
| AGACTTTTTTTTTCTTAATTGCCCTTTGCC | 4.26 |
| AGGCAAACAGATGAAGTACTGTTCTAAATT | -1.04 |
| AGGATAAAGTAAGGTGAAGCCCAGCAGCTC | -1.05 |
| TGGCTGAGATCTGGAATTGGGCCAAGCACA | -0.451 |
| CTGCAGCATCTGAGCAGATGTAAACATCAT | -0.985 |
| GCCCCCGCAGACCCAGTCTTAGGGACTAAG | 3.86 |
| TCTCTGGGGGTCAGAAGTCCAACATTAGTA | 4.35 |
| AGCCCAGAGACAGTGGAATCTACAGAATTC | -1.06 |
| CGCCCAGTCCCGCCGCTTCCCCACCCCCTC | 5.68 |
| TGTGACCTCCAACTATTGCTCAGCAGGGAG | -1.06 |
| GCGGGGAGTCTCCTGGGTAATCACCAAACT | -1.16 |
| AGGCAGCTAGGCAGGCTCAGAACTACCAAT | -1.14 |
| GACAAAGTGTCACAAACTATCAGTGAAGAG | -0.865 |
| ATTCTCTTATCTACTTTAAGATTTGACCCT | 5 |
| CCCAGAGGTCACACTGATACAGCATGGCCC | -1.1 |
| GCCTCAGATTAATGTCAGCCTGCTCAGGGA | -1.22 |
| GGTTCCCCTTCCCCCAACAGGGCTCCTGTT | 3.41 |
| TGAGTGCTTCTTGAATGAAGGAACAGGTTC | 0.988 |
| ATGATCAAAGGTTAGTCTTAGGACCACATG | 2.49 |

| Sequence | binding signal (log2 normalized intensity) |
| --- | --- |
| ACAGAAATCATGTAGCCAGATAAGAGCTAT | -1.17 |
| GGCAAAATGGCATATCTAGGATCACGCCAT | -1.21 |
| CCGCCTCCACACCCCAGCCTGCCCTCCTAG | 3.47 |
| ACTGCAGAAACTCTGCAGTAACTGTCATGG | 0.921 |
| TACTGGATATAGCCAGATGTCCTTTGAAGA | 1.2 |
| AATCTGGCTAATGCATGTCCCTCCTCAACC | 1.34 |
| GGTGGACATGGTTCACTGATTACTGGATGT | 1.82 |
| TCATGATGGGAAGCCTCAGGAGTTGGAGGA | -0.851 |
| GGGGAGCAGGCAGAGGAACAGAGGGGTCTG | -0.908 |
| GATATTTTGAGGGCTCAAAGGTTACCACCC | 4.06 |
| CGACTGGGCCAGGAGCAGGAGCAGAAGCAG | -1.03 |
| GAAAAGAAATGTAGTGACAGAAGGGAGAGT | -1.14 |
| TAGTAAATATTAGGCAAGCTAAGATGAGGG | -0.853 |
| TTATCTGAATCTGGAATCACGTTCGCCTAA | -1.16 |
| TTTCTGAACACTCCAAGGTGTCCAGCTTAG | -1.1 |
| GGCTTTATCTGTGAGAATCCCAGCTCGTGG | -1.09 |
| CCTGAAAGGCCAAGCCAGTTTCCAGGGAGG | -1.12 |
| AGGTGCAAAGTACATATTTACTTACCTTTT | 3.37 |
| AGCAAGAATGTAAATAGCTAGGTACTTTGA | 1.42 |
| ATATTGCAGTGTAGATTAAATCCTCGAAGA | -0.897 |
| GATTTCTAGTTAATATCTAAGATGTAGCTG | -0.751 |
| GTCAGGGTTCTCAGACCACCAGCTGCTTCG | -1.04 |
| AATGATACCAACAGGCTTAACATAAAGGGT | -0.71 |
| CAATAATCTTTGCCCTTGAAGATACAGTTA | 1.83 |

| Sequence | binding signal (log2 normalized intensity) |
| --- | --- |
| CCTTGAAACCCCTCCTTACAGTGCCCTCTG | 3.94 |
| TTTTTTCTTATCTCACTGGATGTGTACCTC | 2.21 |
| CCCACAGGGGTAGAAGCTGAGCAGCAATCA | -1.16 |
| GCCAAACTCTCACTCTACTCTCTTTGGAGT | 0.872 |
| TAGACTTTGCTTTCTTGGAGGTTAACATTT | 2.37 |
| TTGTGGCATCAGGGTCCACAAGGGTTTAAA | 1.92 |
| TGATTACACAGGCCTTATAGGGCATACCCT | -0.631 |
| CCTTGCACTATTGACCCAGTGAAACAACAC | 1.65 |
| CATGCTCTTGGAATGTTGAACCTTTCTTTG | 2.64 |
| TTTATAATCCTAGCTTGGTTTTTCTGGGAC | 1.36 |
| ACTGTCTGCTATGTGTATATGAGTGTATAG | 1.35 |
| ACGAAGGCATTCTTAACAAAACCTGTTTAG | -1.01 |
| AAGGTACTTATCAGAGGAAATTCAGATCAA | -1.06 |
| AAGATAATGGGTCCGAAGGTCAGCTGACCA | 5.02 |
| ACACAGGAAGGGGGATGTCTTTTAGAAGCT | -1.05 |
| AGAGCCCCCTTGATGCATCAGACCCCTGAG | 4.13 |
| CATAAAACATTCTATTCTATCTGTATTCTG | 1.41 |
| GGCACCAACACTTCCCAATCAGAAACCGGG | -1.16 |
| TTCCCTTTATTTAGCCTCACTAAGATAGGG | 0.266 |
| GTTTTTGATTTTGCAGGCTGATAGGCAGAA | 0.548 |
| GTTAATTATAATCGCAGAATAAACGCTGAA | -1.09 |
| CTGCAATCAGAGCTGGATGTGAGTTATGAC | 0.741 |
| AGTTTGCTGTCTTGACTTGGTTCGGGTTTT | 1.65 |
| AGTGTCTCTACTGTCCATCTTTTGCCCCTC | 4.53 |

| Sequence | binding signal (log2 normalized intensity) |
| --- | --- |
| ACCTCCCGTGCCCCCTTTTGCTTTCCGTTA | 2.65 |
| CTGAACCTCTGTCTCTCAGGCACAGCTCGA | -1.05 |
| CTCAGAAATCCCCAAACTTAAAAGAAGCTA | -0.882 |
| CCCCAGAGGAAGACATCATATTTGTTATAT | 1.24 |
| ATTGGGATGGAGTAACTTGCTAAGTATAAA | -0.531 |
| TAGAGTGGAGTGAAGTAAGAGTAGCAGAAG | -0.955 |
| GAACTTTGTTTGTGTTTCCCTCCCTGGTAT | 2.7 |
| TTACTTTTGCAAGGTTTGTTCTTATCATGC | 1.26 |
| CAGTTTATTTACTGTCCTCAAACTGTCACC | 0.886 |
| CAGATCACATTGTTTTGGAGTTAGCTGTCT | 1.24 |
| CCCAGTTGCCTTCCTGTTAGATAGAGGAGT | -0.822 |
| TTGAGGCCTTCGTTGGAAACGGGATTTCTT | -0.965 |
| CAGGTGTGTGGCATCTTGGGGTCAAGGCCT | 2.63 |
| AGCTCTTGGGGAACAATCGCCACTGATTGA | -1.21 |
| ACCTTATCAAGTCCGAACTCACTACAAACG | -1.07 |
| CACCTCTTCAGATAGCCTTTGCCTCCACCT | 1.15 |
| AGAGGGAAGACCAAAGGCCAAAGAGCAAAG | 0.518 |
| GACTCAGCTCCCATAGAGTCCACCACTGAC | -0.67 |
| ACCACAAAGCAGTGAGTGAAACATCCCACT | -1.18 |
| GCAGGGCTACTGTGGTTCCCAAGAAGAGCC | -1.11 |
| ATTTACCGTCTCTCACCAAATCCCTGCCCA | 1.57 |
